Our source for the binding values is PMC4667618.

Protein sequences, listed by entry. Tags and fused reporters are not part of them.
UniProt Q80U70: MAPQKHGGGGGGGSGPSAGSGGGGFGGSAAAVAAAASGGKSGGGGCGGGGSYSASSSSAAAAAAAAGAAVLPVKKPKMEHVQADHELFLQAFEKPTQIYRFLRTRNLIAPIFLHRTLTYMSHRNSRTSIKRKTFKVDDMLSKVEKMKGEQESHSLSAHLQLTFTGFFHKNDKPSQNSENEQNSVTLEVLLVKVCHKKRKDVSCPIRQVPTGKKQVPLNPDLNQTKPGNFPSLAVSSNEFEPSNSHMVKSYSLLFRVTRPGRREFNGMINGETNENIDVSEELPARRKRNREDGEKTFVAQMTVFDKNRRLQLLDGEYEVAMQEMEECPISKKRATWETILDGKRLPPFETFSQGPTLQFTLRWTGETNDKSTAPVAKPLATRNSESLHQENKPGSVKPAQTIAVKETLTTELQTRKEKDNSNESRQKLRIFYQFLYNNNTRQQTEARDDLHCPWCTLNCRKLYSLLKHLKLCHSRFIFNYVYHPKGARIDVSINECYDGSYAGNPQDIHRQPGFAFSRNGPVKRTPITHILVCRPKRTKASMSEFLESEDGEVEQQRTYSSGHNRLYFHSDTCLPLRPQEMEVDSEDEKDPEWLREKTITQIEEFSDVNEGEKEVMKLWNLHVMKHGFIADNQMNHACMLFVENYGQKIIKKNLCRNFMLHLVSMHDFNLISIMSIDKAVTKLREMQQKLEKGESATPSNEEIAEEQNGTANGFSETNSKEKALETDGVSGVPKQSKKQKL
UniProt Q61188: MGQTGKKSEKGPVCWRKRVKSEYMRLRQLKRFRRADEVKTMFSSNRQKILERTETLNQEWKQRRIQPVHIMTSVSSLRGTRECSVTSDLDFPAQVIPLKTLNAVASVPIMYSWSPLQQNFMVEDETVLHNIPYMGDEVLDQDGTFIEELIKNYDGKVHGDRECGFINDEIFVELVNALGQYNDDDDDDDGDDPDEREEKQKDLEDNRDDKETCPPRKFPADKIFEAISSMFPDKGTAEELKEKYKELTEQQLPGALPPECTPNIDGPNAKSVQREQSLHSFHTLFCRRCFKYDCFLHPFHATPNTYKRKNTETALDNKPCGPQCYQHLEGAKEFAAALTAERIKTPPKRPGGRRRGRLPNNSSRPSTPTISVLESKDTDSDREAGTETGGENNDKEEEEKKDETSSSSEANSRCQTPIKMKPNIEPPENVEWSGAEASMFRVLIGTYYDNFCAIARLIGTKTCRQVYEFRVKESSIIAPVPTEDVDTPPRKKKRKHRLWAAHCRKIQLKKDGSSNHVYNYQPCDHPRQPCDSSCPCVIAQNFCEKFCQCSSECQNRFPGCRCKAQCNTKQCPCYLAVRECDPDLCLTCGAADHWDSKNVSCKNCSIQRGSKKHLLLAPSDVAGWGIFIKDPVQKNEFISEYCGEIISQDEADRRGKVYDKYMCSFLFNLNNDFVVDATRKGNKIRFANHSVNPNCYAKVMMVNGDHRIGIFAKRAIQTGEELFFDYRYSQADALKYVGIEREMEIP
UniProt Q03267: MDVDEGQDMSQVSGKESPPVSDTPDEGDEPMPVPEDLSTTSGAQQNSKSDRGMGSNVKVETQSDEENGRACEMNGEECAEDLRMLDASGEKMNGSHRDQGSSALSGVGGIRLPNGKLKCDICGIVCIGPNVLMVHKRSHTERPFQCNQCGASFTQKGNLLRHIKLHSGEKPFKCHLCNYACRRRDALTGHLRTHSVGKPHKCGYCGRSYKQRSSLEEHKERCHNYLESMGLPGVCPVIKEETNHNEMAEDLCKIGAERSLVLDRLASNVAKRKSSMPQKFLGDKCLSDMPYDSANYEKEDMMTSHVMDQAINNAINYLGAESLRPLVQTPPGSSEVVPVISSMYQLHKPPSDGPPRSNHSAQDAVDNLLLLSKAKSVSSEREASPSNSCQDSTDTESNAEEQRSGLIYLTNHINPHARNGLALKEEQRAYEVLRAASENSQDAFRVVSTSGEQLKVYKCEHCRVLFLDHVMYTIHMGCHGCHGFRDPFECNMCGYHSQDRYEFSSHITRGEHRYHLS
UniProt Q9R190: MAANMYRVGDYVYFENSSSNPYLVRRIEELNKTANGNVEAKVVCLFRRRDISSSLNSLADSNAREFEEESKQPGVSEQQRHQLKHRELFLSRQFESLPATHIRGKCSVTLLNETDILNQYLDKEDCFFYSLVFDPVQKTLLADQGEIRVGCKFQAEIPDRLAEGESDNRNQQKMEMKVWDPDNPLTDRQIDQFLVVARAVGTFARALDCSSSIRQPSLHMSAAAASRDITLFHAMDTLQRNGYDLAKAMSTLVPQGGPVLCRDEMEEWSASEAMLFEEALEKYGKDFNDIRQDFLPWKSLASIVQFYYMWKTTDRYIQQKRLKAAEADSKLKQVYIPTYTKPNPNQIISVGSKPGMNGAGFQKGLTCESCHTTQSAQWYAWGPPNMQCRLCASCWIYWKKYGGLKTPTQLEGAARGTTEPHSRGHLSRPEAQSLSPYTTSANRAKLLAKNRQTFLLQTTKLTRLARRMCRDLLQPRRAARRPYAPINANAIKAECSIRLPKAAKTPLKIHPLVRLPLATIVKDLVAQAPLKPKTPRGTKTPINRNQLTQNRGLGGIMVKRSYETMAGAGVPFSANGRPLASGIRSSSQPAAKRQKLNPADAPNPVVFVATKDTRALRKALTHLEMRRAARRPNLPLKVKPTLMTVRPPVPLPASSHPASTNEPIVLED
UniProt Q6PDQ2: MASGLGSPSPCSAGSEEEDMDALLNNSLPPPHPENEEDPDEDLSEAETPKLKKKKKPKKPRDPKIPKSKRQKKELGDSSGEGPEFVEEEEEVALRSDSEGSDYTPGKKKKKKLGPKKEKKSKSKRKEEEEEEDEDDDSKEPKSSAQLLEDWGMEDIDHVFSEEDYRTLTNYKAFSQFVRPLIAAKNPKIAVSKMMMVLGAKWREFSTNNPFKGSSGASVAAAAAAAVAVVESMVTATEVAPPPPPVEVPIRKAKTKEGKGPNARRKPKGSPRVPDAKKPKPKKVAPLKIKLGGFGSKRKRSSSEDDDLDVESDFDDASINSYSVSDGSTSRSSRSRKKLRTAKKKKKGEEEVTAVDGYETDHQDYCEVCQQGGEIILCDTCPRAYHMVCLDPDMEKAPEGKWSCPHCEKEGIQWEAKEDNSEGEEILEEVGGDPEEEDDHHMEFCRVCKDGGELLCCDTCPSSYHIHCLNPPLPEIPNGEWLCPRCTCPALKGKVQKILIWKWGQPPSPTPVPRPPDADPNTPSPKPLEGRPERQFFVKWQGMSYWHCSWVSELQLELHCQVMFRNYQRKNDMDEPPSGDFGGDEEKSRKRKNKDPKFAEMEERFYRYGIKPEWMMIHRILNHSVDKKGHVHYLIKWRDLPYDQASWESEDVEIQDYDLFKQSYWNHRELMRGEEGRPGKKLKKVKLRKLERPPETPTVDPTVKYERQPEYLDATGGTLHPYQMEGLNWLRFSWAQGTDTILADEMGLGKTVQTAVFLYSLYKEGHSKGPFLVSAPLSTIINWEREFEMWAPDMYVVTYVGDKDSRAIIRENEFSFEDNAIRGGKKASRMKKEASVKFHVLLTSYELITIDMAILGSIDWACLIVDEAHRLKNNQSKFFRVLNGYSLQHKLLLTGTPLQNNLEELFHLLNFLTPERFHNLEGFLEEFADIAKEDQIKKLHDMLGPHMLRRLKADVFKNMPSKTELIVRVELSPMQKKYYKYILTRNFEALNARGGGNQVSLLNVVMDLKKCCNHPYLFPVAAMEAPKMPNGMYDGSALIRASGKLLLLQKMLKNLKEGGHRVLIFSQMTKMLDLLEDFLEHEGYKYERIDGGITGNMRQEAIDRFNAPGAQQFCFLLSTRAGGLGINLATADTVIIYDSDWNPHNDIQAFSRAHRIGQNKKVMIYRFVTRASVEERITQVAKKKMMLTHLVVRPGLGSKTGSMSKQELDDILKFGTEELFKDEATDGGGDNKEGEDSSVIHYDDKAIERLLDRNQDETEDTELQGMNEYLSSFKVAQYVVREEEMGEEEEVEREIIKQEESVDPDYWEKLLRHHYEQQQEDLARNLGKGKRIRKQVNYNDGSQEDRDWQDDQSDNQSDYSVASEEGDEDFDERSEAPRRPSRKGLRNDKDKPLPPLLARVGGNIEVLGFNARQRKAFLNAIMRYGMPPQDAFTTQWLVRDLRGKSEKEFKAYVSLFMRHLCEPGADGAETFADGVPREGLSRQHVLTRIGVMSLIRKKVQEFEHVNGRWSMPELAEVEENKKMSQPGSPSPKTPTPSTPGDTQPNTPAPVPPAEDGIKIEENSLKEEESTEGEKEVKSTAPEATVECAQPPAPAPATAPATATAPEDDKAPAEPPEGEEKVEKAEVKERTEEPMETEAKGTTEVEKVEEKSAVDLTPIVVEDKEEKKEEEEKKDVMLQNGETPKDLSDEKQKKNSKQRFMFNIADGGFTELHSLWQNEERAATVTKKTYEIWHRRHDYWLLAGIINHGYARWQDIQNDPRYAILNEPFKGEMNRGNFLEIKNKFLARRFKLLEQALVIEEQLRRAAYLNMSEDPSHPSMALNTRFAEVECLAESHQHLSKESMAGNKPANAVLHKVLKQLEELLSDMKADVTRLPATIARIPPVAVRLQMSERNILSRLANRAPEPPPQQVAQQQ

No constants are given. Whether binding was seen depends on the method and setting. Binding seen in cells or lysates may run through a third protein. Some binding calls cover weakened binding; strength is not graded here.

The target of test [1] is Suz12 (mouse (endogenous in ILC87 cells and thymocytes)) (UniProt Q80U70). Put plainly: co-IP; nuclear extracts (RIPA buffer) of ILC87-Ik1-Bcl2 cells, or of ILC87-Bcl2 cells expressing Ikaros deletion mutants; IP with anti-Ikaros, anti-Suz12, anti-Ezh2 or IgG overnight at 4 °C; washed 5x with RIPA containing 300 mM NaCl; western blotting. Background: A western blot detects proteins with antibodies after separation by electrophoresis.

The target in test [2] is Ezh2 (mouse (endogenous in ILC87 cells and thymocytes)) (UniProt Q61188). The test is described as above.
In test [3] the target is Ikaros (Ik1 isoform) constitutively expressed in ILC87 cells (UniProt Q03267). Described as above.
For test [4] the target is unchanged. Put plainly: co-IP; nuclear extracts of ILC87-Ik1-Bcl2 cells; anti-Ikaros or IgG IP; immune complexes washed in the presence of 0.3, 0.5 or 1 M NaCl, or 1 M NaCl plus 8 M urea.
Test [5] has the same target. Put plainly: co-IP; nuclear extracts of ILC87-Ik1-Bcl2 cells first incubated in three consecutive steps with IgG- or anti-Mta2- and anti-Mi2β-coupled Protein A/G beads (NuRD depletion); supernatants subjected to Ikaros, Mta2, Mi2β or IgG IPs for 8 h at 4 °C; washed 5x with RIPA containing 300 mM NaCl.
Test [6] has the same target. Put plainly: co-IP; nuclear extracts of ILC87-Ik1-Bcl2 cells; anti-Ikaros or IgG IP; IPs and washing steps performed in the presence of 0.3 or 0.5 M NaCl.
Test [7] deals with Suz12 (mouse (endogenous in ILC87 cells and thymocytes)) (UniProt Q80U70). Put plainly: co-IP; ~333 μg nuclear extracts from WT CD4-CD8-CD3- (DN) thymocytes; IP with anti-Ikaros, anti-Suz12 or IgG; western blotting.
Test [8] has as its target Ikaros, endogenous in primary WT DN thymocytes (mouse (endogenous in thymocytes)) (UniProt Q03267). Described as above.
Test [9] deals with Mta2 (mouse (endogenous in ILC87 cells)) (UniProt Q9R190). Put plainly: co-IP; nuclear extracts of ILC87-Ik1-Bcl2 cells first incubated in three consecutive steps with IgG- or anti-Mta2- and anti-Mi2β-coupled Protein A/G beads (NuRD depletion); supernatants subjected to Ikaros, Mta2, Mi2β or IgG IPs for 8 h at 4 °C; washed 5x with RIPA containing 300 mM NaCl.
For test [10], the target named is Ik1-GST fusion protein (full-length Ikaros1 isoform) (UniProt Q03267). The test can be described thus: pull-down; GST-Ik1 or GST immobilised on glutathione agarose beads, incubated overnight at 4 °C with nuclear extracts of Ikaros-null ILC87 cells; washed 5x with RIPA buffer containing 300 mM NaCl; western blotting; only the target purified.
Test [11] has as its target Mi2β (CHD4) (mouse (endogenous in ILC87 cells)) (UniProt Q6PDQ2). The test can be described thus: co-IP; nuclear extracts of ILC87-Ik1-Bcl2 cells first incubated in three consecutive steps with IgG- or anti-Mta2- and anti-Mi2β-coupled Protein A/G beads (NuRD depletion); supernatants subjected to Ikaros, Mta2, Mi2β or IgG IPs for 8 h at 4 °C; washed 5x with RIPA containing 300 mM NaCl.

As to “Ikaros (Ik1 isoform) constitutively expressed in ILC87 cells (from UniProt Q03267 1-517)”, the binding result in [1] and in test [2] was “binds” in each case.
Mta2 (from UniProt Q9R190 1-668): the binding entry in [1] is listed as “no binding”; in [3] it was “binds”; in [2] it was “no binding”; in [4], “binds”; in [5], “binds”; in test [6] it was “binds”.
“Ikaros, endogenous in primary WT DN thymocytes (from UniProt Q03267 1-517)”: in test [7], the binding result was “binds”.
“Mi2β (CHD4) (from UniProt Q6PDQ2 1-1915)”: the binding result in test [1] was “no binding”; in test [3], “binds”; in test [5], “binds”.
In the case of Ezh2 (from UniProt Q61188 1-746), the binding result in test [3] was “binds”; in test [4], “binds”; in [8], “binds”; in test [5] it was “binds”; in test [9], “no binding”; in test [6], “binds”. The binding result in [10] is listed as “binds”.
Suz12 (from UniProt Q80U70 1-741): the binding result was “binds” in test [3]; “binds” in test [8]; “binds” in test [5]; “no binding” in test [9]; “no binding” in test [11]; “binds” in [10].
